This experiment can be described thus: qHTS Assay for Lipid Storage Modulators (AID 1519). Particulars: Drosophila S3 cells, BODIPY lipid droplet/cell ratio, laser cytometry, cells loaded with oleic acid. The essentials: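 Cells seeded at 5,000 per well were treated with compounds over a concentration series and loaded with oleic acid (400 uM, as added). Lipid droplet fluorescence (488 nm excitation, 500-530 nm channel) was read by laser-scanning cytometry and normalized to 20 uM Triacsin C.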
(Quantitative high-throughput screening tests each substance at several concentrations.)

Where [1] appears, read: measured here: cell count channel max response.
Setting [2] is: measured here: lipid (BODIPY) channel AC50.
[3] abbreviates: measured here: lipid channel max response.
Setting [4] is: measured here: cell number channel AC50.

The structures appear in SMILES notation. Some of the results follow. Further columns of the screen follow, without active or inactive calls. Most of these compounds were active or inconclusive in the main read-out, so they are no random draw. Words in brackets tell the shape of the fitted curve; partial curves, single points and poor fits give uncertain potencies.

In general, AC50 refers to the midpoint of the concentration-response curve, whichever way the signal moves.
Tags give direction and shape of the fitted curve.

With `c1cncc(CNc2nc(-c3cccnc3)nc3ccccc23)c1`, the max response runs as follows: under setting [1], 15.9%; under setting [3], 21.7%. In addition, the AC50 under setting [2] is 794 nM [rising, full curve, poor fit].

As for `COc1ncc2nc(-c3ccc(Cl)cc3)c(=O)n(Cc3cccs3)c2n1`, the max response is, setting by setting: under setting [1], 6.69%; under setting [3], 13.8%. Besides, the AC50 under setting [2] was 1410 nM [rising, partial curve].

As for `Clc1ccccc1-c1cc(NCc2ccccc2)ncn1`, the max response runs as follows: under setting [1], 12.3%; under setting [3], 14.9%. For the same molecule, the AC50 under setting [2] was 7080 nM [rising, single point].

As to `COc1ccccc1CCn1c(=O)c(-c2ccc(F)cc2)nc2cncnc21`, the max response under setting [1] is 17% and the max response under setting [3] is 24.2%. The AC50 under setting [2] was 11.2 nM [rising, full curve, poor fit].

As for `O=C(Oc1ccccc1)N1CCC2(CC1)CCN(c1ccccn1)CC2`, the max response reads like this: under setting [1], -6.62%; under setting [3], -1.7%. In addition, the AC50 under setting [2] was 112 nM [rising, partial curve, poor fit].

With `CN1CCN(c2ncc3nc(-c4cccs4)c(=O)n(CCc4ccccc4)c3n2)CC1`, the max response is 22.2% under setting [1] and 11.9% under setting [3]. Moreover, the AC50 under setting [4] was 1260 nM [rising, full curve, poor fit].

Consider `Cc1noc(C)c1-c1nc(NCc2cccs2)c2ccccc2n1`, for which the max response by setting is: under setting [1], 9%; under setting [3], 7.37%. Further, the AC50 under setting [2] was 1000 nM [rising, full curve, poor fit].

Regarding `CC1(C)C(=O)C=C[C@@]2(C)C1C=C[C@@]1(C)C2CC[C@@]2(C)C(c3ccoc3)OC(=O)C3OC312` (stereo partly drawn), the max response by setting is: under setting [1], -25%; under setting [3], -45.6%. Moreover, under setting [2], the AC50 was 35500 nM [falling, single point].

As for `COCCn1c(=O)c(-c2cccc(C#N)c2)nc2cnc(Oc3ccc(OC)cc3)nc21`, the max response is -24.9% under setting [1] and -43% under setting [3]. The AC50 under setting [2] is 12600 nM [falling, single point].

As to `CCNc1ncc2nc(-c3ccccc3)c(=O)n(C3CC3)c2n1`, the max response reads like this: under setting [1], 26.1%; under setting [3], 21.1%. Also, the AC50 under setting [2] was 12.6 nM [rising, full curve, poor fit].

In the case of `FC(F)(F)c1ccccc1-c1cncnc1NCCc1cnc[nH]1`, the max response is, setting by setting: under setting [1], 8.95%; under setting [3], 16.9%. Further, the AC50 under setting [2] is 891 nM [rising, full curve, poor fit].

Consider `COCCn1c(=O)c(-c2cccc(C#N)c2)nc2cnc(Nc3ccccc3)nc21`, for which the max response is, setting by setting: under setting [1], 34.9%; under setting [3], -46.2%. For the same molecule, under setting [4], the AC50 is 3160 nM [rising, partial curve, poor fit].

Regarding `Nc1ncnc2c1[nH]c(=O)n2C1CC(O)C(CO)O1` (stereo not drawn), the max response reads like this: under setting [1], 9.64%; under setting [3], 37.4%. In addition, the AC50 under setting [2] is 39.8 nM [rising, full curve, poor fit].

Regarding `N#Cc1cccc(NC(=O)N2CC[C@@]3(CCCN(C(=O)c4cc(C(F)(F)F)cc(C(F)(F)F)c4)C3)C2)c1`, the max response reads like this: under setting [1], 18.1%; under setting [3], 23%. The AC50 under setting [4] was 3550 nM [rising, single point].

Take `CCCCC(=O)OC1CCC2C3CCc4cc(O)ccc4C3CC[C@]12C` (stereo partly drawn): the max response is, setting by setting: under setting [1], 22.3%; under setting [3], 34.1%. For the same molecule, the AC50 under setting [2] is 15800 nM [rising, partial curve].

For `Cn1cccc1C(=O)N1CCC2(CC1)CN(c1cccc(-c3ccccc3)c1)C2`, the max response is -10.2% under setting [1] and -59.3% under setting [3]. The AC50 under setting [2] was 15800 nM [falling, partial curve, poor fit].

Regarding `CC1(C)OC(=O)NC1=O`, the max response stood at 24.6% under setting [1] and 44.1% under setting [3]. The AC50 under setting [2] is 39800 nM [rising, single point].

With `CC1CCC2[C@](C)(CO)C(O)CC[C@]2(C)C12CCC(CO)(CCO)O2` (stereo partly drawn), the max response was -34.5% under setting [1] and -23.2% under setting [3]. Also, the AC50 under setting [4] was 1120 nM [falling, partial curve, poor fit].

As to `COc1ccc(CNc2ncncc2-c2ccoc2)c(OC)c1`, the max response under setting [1] worked out at 22.5% and the max response under setting [3] was 27.3%. The AC50 under setting [2] was 316 nM [rising, full curve, poor fit].

Turning to `O=C(Oc1ccccc1)N1CCC2(CC1)CN(c1ncccn1)C2`, the max response is, setting by setting: under setting [1], 4.08%; under setting [3], 12.7%. Besides, the AC50 under setting [4] is 1580 nM [rising, partial curve, poor fit].

Regarding `COCCn1c(=O)c(-c2ccccc2)nc2cnc(N3CCNCC3)nc21`, the max response by setting is: under setting [1], 25%; under setting [3], 34.8%. In addition, the AC50 under setting [2] is 14100 nM [rising, partial curve, poor fit].

On to `Cn1c(=O)c(-c2ccc(F)cc2)nc2cnc(N3CCOCC3)nc21`, for which the max response came to 24.2% under setting [1] and 34.2% under setting [3]. For the same molecule, the AC50 under setting [2] was 8910 nM [rising, partial curve, poor fit].

As for `N[C@H](Cc1ccc(Cl)cc1)C(=O)O`, the max response amounted to 26.4% under setting [1] and 31.1% under setting [3]. Further, the AC50 under setting [2] was 39800 nM [rising, single point].

For `O=c1cnc2cnc(Nc3ccccc3)nc2n1CCc1ccccc1`, the max response runs as follows: under setting [1], -5.46%; under setting [3], -6.14%. For the same molecule, the AC50 under setting [2] was 1260 nM [rising, full curve, poor fit].

Consider `C[N+](C)(C)CCCCCNCC12CC3CC(CC(C3)C1)C2`, for which the max response was 24.5% under setting [1] and 32.2% under setting [3]. Under setting [2], the AC50 was 25100 nM [rising, partial curve, poor fit].

Take `O=C(c1csnn1)N1CCC[C@@]2(CCN(c3cccc(-c4ccccc4)c3)C2)C1`: the max response by setting is: under setting [1], -7.92%; under setting [3], -16.5%. In addition, the AC50 under setting [2] was 3550 nM [rising, partial curve, poor fit].

The record behind these values is PubChem BioAssay (NCATS).
